Results taken from PubChem BioAssay AID1345083 (National Center for Advancing Translational Sciences (NCATS), 2018).
The campaign covered roughly 94,000 compounds. About 6,200 (6.6%) were called active. Inconclusive results, whose numbers are uncertain, are shown with a selection of clear calls. Calls follow the shape of the dose curve; as a rule, active = well fitted inhibition curve with a large enough effect; inconclusive = small, poorly fitted or top-dose-only effect; inactive = flat fitted curve, though single readings scatter. Potencies beside an inconclusive call are fits to weak or partial responses and may not hold up.
Potency is read from the fitted curve at half-maximal effect; tags tell the direction and shape of the fitted curve.

Experiment: Cytotoxic Profiling in HEK 293 Cell Line of Diverse Libraries Using Quantitative High-Throughput Screening; also: nearly all actives have a fitted effect of over 60% in size
Settings: HEK 293 viability, ATP luminescence (CellTiter-Glo), 48-72 h; series mostly up to 115 µM
Method in brief: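 Luminescence from cellular ATP, measured with CellTiter-Glo, indicates HEK 293 viability. Cells plated at 250 cells/well are treated with compound for 48 or 72 hr at 37 degree Celsius before reagent addition.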
For `Cc1ccc(CNC(=O)c2nnn3cc(-c4ccc(F)cc4)[nH]c(=O)c23)cc1`, the Potency was inconclusive: 79.4 µM [inhibitor, single point].
With `O=C1CCN(S(=O)(=O)c2ccccc2)CCCN(C(=O)CCC2CCCC2)CCN1` the Potency was “inactive”.
In the case of `COc1ccccc1-c1cc(-c2ccc(=O)[nH]c2)c2cncn2c1`, the Potency is reported as inconclusive: 100 µM [inhibitor, partial curve].
With `O=C(c1ccccn1)N1CCC(Oc2ccc(-c3noc(-c4ccccc4)n3)cc2)C1` (configuration not stated) the Potency was active: 22.4 µM.
In the case of `CCCN(C)c1nccnc1OC1CCN(C(=O)c2ccc(OC)nc2OC)C1` (configuration not stated), the Potency is reported as inconclusive: 50.1 µM [inhibitor, partial curve, poor fit].
For `COc1ccc2c3c1C(c1ccccc1)N(Cc1ccccc1)CC3=CC(C)(C)CO2` (configuration not stated), the Potency was inconclusive: 3.55 µM [inhibitor, full curve, poor fit].
With `CCc1noc(CC2CCOC3(CCN(S(=O)(=O)c4ccc(F)c(F)c4)CC3)C2)n1` (configuration not stated) the Potency was active: 79.4 µM.
With `COc1ccc(-c2cc(C(=O)NCc3ccccc3Cl)c3cnn(C)c3n2)cc1` the Potency was inconclusive: 22.4 µM [inhibitor, full curve, poor fit].
With `Clc1cccc(Nc2cnc3ccc(N4CCOCC4)nn23)c1` the Potency was inconclusive: 100 µM [inhibitor, partial curve, poor fit].
For `CCOC1CCOC2(CCN(C(=O)c3nn(C)c4ccccc34)CC2)C1` (configuration not stated), the Potency was “inactive”.
With `Cc1ccn(CC(=O)N2CCCCCCNC(=O)[C@@H]3CCCC[C@@H]32)n1` the Potency was “inactive”.
In the case of `CCCN1CCN(C(=O)Cn2c(C)ccc(NC(=O)Nc3ccccc3)c2=O)CC1`, the Potency is reported as “inactive”.
For `Cn1cnc(S(=O)(=O)N2CCCC(Cn3cnc4cccnc43)C2)c1` (configuration not stated), the Potency was “inactive”.
With `CN(Cc1cnc2ccccc2n1)C(=O)Cc1c[nH]c(=O)n(C)c1=O` the Potency was inconclusive: 100 µM [inhibitor, single point].
With `O=C(NC1CCCCC1)O[C@@H]1CO[C@H]2[C@@H]1OC[C@@H]2n1nnnc1Sc1ncccn1` the Potency was “inactive”.
With `COc1ccc(NC(=O)O[C@@H]2CO[C@H]3[C@@H]2OC[C@@H]3NCc2ccc(-c3ccccc3)cc2)cc1` the Potency was active: 35.5 µM.
In the case of `CCOc1ccccc1C(=O)N1Cc2cnc(Cc3ccc(OC)cc3)nc2C1`, the Potency is reported as “inactive”.
With `CN(C)c1ccc2nnc(-c3cc(C(=O)NCCc4ccccn4)ccn3)n2n1` the Potency was “inactive”.
For `O=C1CCC(C(=O)NCc2ccc(-c3cnc4c(Oc5ccccc5)nccn34)cc2)N1` (configuration not stated), the Potency was inconclusive: 100 µM [inhibitor, partial curve].
In the case of `CO[C@H]1C(=O)N(C(C)C)[C@H]1C1CCN(C(=O)Cn2nc(C(F)(F)F)cc2C)CC1`, the Potency is reported as “inactive”.
In the case of `CC(C)Nc1nccc(C2(c3ccccc3Cl)CCNCC2)n1`, the Potency is reported as inconclusive: 89.1 µM [inhibitor, partial curve, poor fit].
For `O=C(NC1CCCN(c2cc(-c3ccccc3)[nH]n2)C1)c1cccc(Cl)c1` (configuration not stated), the Potency was inconclusive: 50.1 µM [inhibitor, partial curve, poor fit].
In the case of `CN(C)C(=O)c1ccc(-c2ncc3c(n2)OCCN(Cc2ccc(F)cc2F)C3=O)cc1`, the Potency is reported as inconclusive: 100 µM [inhibitor, partial curve].
In the case of `CNC(=O)CN(C)C(=O)c1coc(COc2ccc3ccc(OC)cc3c2)n1`, the Potency is reported as inconclusive: 79.4 µM [inhibitor, partial curve, poor fit].
With `COCc1nc2nc(-c3ccccc3)c(-c3ccc(N4CCN(C)CC4)nc3)cc2n1C` the Potency was inconclusive: 100 µM [inhibitor, partial curve].
With `COc1cccc(CN2CCCC3(CN[S+](=O)([O-])c4ccccc4N3)C2)c1` (configuration not stated) the Potency was inconclusive: 79.4 µM [inhibitor, partial curve, poor fit].
With `Cc1cc(C)cc(-c2cccc(CN)c2)c1` the Potency was active: 56.2 µM.
In the case of `O=C(Nc1cccc(F)c1)N1C[C@@H]2C[C@H](C1)c1ccc(-c3cccc(C(F)(F)F)c3)c(=O)n1C2`, the Potency is reported as inconclusive: 89.1 µM [inhibitor, single point].
With `Cc1nc(-c2ccc(Cl)cc2)n(Cc2ccc(F)cc2F)c(=O)c1CCO` the Potency was active: 35.5 µM.
For `Cc1ccccc1C(=O)N1CCc2c(nc3cc[nH]n3c2=O)C1`, the Potency was “inactive”.
For `CNC(=O)c1cc(C2CC2)nc2c1c(C1CCN(C(=O)c3cccc(Cl)c3)C1)nn2C` (configuration not stated), the Potency was inconclusive: 100 µM [inhibitor, single point].
For `COCCOCC(=O)N1CC2CC(C1)[C@H]1CCCC(=O)N1C2` (some centres not stated), the Potency was “inactive”.
With `CCCNC(=O)CN1CCCc2nc(-c3ccccc3)ncc2C1=O` the Potency was “inactive”.
In the case of `CC1CCCN1C(=O)c1cc(-c2cnn(C(C)C)c2)nc2cc(F)ccc12` (configuration not stated), the Potency is reported as “inactive”.
In the case of `O=C(NC1CCCCC1)c1cn2cc(-c3cccnc3)sc2n1`, the Potency is reported as inconclusive: 79.4 µM [inhibitor, partial curve, poor fit].
In the case of `CC(C)CC(=O)N[C@H](C)c1c(-c2ccc(Cl)cc2)noc1C(=O)O`, the Potency is reported as “inactive”.
With `CC(C)c1ccc(CN2C[C@@H]3C(=O)N(CCCN4CCCC4=O)C(=O)[C@@H]3C2)cc1` the Potency was inconclusive: 79.4 µM [inhibitor, partial curve].
With `Cc1ncccc1-c1nc2cc(C(=O)NCC3CCCCC3)ccc2o1` the Potency was “inactive”.
With `O=C(NC1CCCCC1)N1CCC2(CC1)CC(N(C(=O)c1ccccc1)C1CC1)CCO2` (configuration not stated) the Potency was inconclusive: 44.7 µM [inhibitor, partial curve, poor fit].
In the case of `Nc1ccc2ncnc(N3CCCC3)c2c1`, the Potency is reported as inconclusive: 79.4 µM [inhibitor, single point].
For `COc1ccc(C2Cn3cnc(C(=O)N4CCC(C(=O)NCC5CCCO5)CC4)c3CO2)cc1` (configuration not stated), the Potency was “inactive”.
With `COc1cccc(N2CCN(c3nc(C(=O)NCc4ccco4)cs3)CC2)c1` the Potency was active: 44.7 µM.
With `Cc1nc(N2CCC(C(=O)NCCc3cccs3)CC2)cc(C(F)(F)F)n1` the Potency was inconclusive: 56.2 µM [inhibitor, partial curve, poor fit].
For `COc1cccc(-c2cccc(C(=O)N3CCN(C(=O)Nc4ccc(Cl)cc4)CC3)c2)c1`, the Potency was active: 89.1 µM.
In the case of `c1csc(-c2nc3nccc(-c4cccs4)n3n2)c1`, the Potency is reported as inconclusive: 50.1 µM [inhibitor, partial curve, poor fit].
With `CN(Cc1ccc(F)cc1)C(=O)c1cn(Cc2ccccc2C(F)(F)F)nn1` the Potency was active: 7.94 µM.
For `Cc1cc(=O)n(CC(=O)Nc2ccc(Br)cc2)c(N(C)Cc2ccccc2)n1`, the Potency was inconclusive: 15.8 µM [inhibitor, full curve, poor fit].
With `CN1C[C@@H](NS(=O)(=O)c2ccccc2)C[C@H]1c1nc(Cc2ccccc2)no1` the Potency was inconclusive: 126 µM [inhibitor, single point].
In the case of `CN1c2cc(C(=O)Nc3ccc4c(c3)OCCO4)ccc2C(=O)N2CCCCCC21` (configuration not stated), the Potency is reported as inconclusive: 56.2 µM [inhibitor, partial curve, poor fit].
With `CCc1nc(N2CCc3ccccc3C2)ncc1C(=O)O` the Potency was active: 31.6 µM.
For `COc1ccc(-c2cc(C(=O)NCc3c(C)cc(C)[nH]c3=O)c3c(c2)N(C(C)C)CCO3)cc1`, the Potency was active: 28.2 µM.
With `O=C(Cc1ccccc1)N1CCC2(CC1)CC(c1cccc(C(F)(F)F)c1)=NO2` the Potency was active: 44.7 µM.
In the case of `c1cc2c(cc1CN1CCCC1)CNCCO2`, the Potency is reported as inconclusive: 89.1 µM [inhibitor, single point].
With `N#Cc1ccc(CN2CCC3(C2)NC(=O)c2ccccc2CO3)cc1` (configuration not stated) the Potency was inconclusive: 56.2 µM [inhibitor, partial curve, poor fit].
With `c1ccc(CN2CCNc3cnc(Nc4ccncn4)cc3C2)cc1` the Potency was inconclusive: 126 µM [inhibitor, single point].
For `COc1cccc(S(=O)(=O)N2CCCCCNC(=O)CC2c2ccccc2)c1` (configuration not stated), the Potency was inconclusive: 70.8 µM [inhibitor, single point].
In the case of `O=C(Nc1ccc(F)cc1F)N1CCC(OC2CCN(Cc3ccccc3)CC2)CC1`, the Potency is reported as inconclusive: 89.1 µM [inhibitor, single point].
With `COc1ccc(-c2noc(-c3cccn3CC(=O)Nc3cccc(Cl)c3)n2)cc1F` the Potency was “inactive”.
For `O=C(c1ccc(F)c(F)c1)N1CCN(C(=O)c2nnn3c2COC(c2ccccc2)C3)CC1` (configuration not stated), the Potency was inconclusive: 39.8 µM [inhibitor, partial curve, poor fit].
For `COc1ccc(-c2noc(-c3cccn3CC(=O)Nc3ccc(N(C)C)cc3)n2)cc1F`, the Potency was inconclusive: 89.1 µM [inhibitor, partial curve, poor fit].
For `Cc1ccc(-c2ccc3nnc(CNC(=O)c4cccc(N(C)C)c4)n3n2)cc1C`, the Potency was inconclusive: 56.2 µM [inhibitor, partial curve, poor fit].
For `Cc1ccccc1-n1nc(C)c([C@H]2C=C[C@@H](OC(=O)N[C@H](C)c3ccccc3)C2)c1C`, the Potency was inconclusive: 100 µM [inhibitor, partial curve].
For `CN1C(=O)C2(CCN(Cc3cccn3C)C2)c2ccccc21` (configuration not stated), the Potency was inconclusive: 126 µM [inhibitor, single point].
In the case of `CCOC(=O)C1CCCN(C(=O)c2cn3cc(-c4ccc(OC)cc4)sc3n2)C1` (configuration not stated), the Potency is reported as inconclusive: 44.7 µM [inhibitor, partial curve, poor fit].
In the case of `Cn1ccnc1CN1CCOC[C@H](Oc2ccc(C(F)(F)F)cc2)C1`, the Potency is reported as inconclusive: 100 µM [inhibitor, partial curve, poor fit].
For `COc1cccc(CC(=O)N2CCC3(CC2)NC(=O)N(c2ccccc2)N3)c1`, the Potency was inconclusive: 22.4 µM [inhibitor, full curve].
In the case of `O=C(c1nnc(COc2ccc3c(c2)OCO3)n1Cc1ccccc1)N1CCC[C@@H]1c1ccc(Br)cc1`, the Potency is reported as inconclusive: 25.1 µM [inhibitor, full curve].
